# The other results are listed elsewhere or left out. The energies were worked out here from pooled read counts, against the library average; single values are noisy.
# Molecular target: T1, Pho4 (S. cerevisiae) (UniProt P07270)
# T1 sequence: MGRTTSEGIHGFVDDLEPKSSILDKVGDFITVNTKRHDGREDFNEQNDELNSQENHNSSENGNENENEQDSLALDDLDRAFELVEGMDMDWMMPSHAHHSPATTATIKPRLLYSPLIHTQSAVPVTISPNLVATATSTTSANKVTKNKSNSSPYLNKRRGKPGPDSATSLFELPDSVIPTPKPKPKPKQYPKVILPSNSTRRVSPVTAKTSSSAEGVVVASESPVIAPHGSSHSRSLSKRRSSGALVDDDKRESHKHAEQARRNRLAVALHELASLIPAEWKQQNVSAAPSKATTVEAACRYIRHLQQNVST
# Experiment: relative binding free energy (BET-seq); higher = weaker binding
# Conditions: reference: library average
row,Sequence,relative binding free energy
1,AGTTACACGTGAGATG,0.27 kcal/mol
2,TTCAGCACGTGATGGG,-0.05 kcal/mol
3,AGATTCACGTGTATAA,0.28 kcal/mol
4,CTGTTCACGTGGGGTA,0.2 kcal/mol
5,TAAGTCACGTGATGCT,0.15 kcal/mol
6,AAAGGCACGTGGACGT,-0.11 kcal/mol
7,TACGGCACGTGTTTAG,-0.05 kcal/mol
8,AGGTTCACGTGTGAGA,0.29 kcal/mol
9,TTTTGCACGTGGTACG,-0.01 kcal/mol
10,TTCATCACGTGGAATT,0.24 kcal/mol
11,GGTAGCACGTGGCTCG,-0.07 kcal/mol
12,CAGGGCACGTGGTAAG,-0.01 kcal/mol
13,GGGCTCACGTGTTGGA,0.19 kcal/mol
14,GGTGGCACGTGCAGAT,-0.13 kcal/mol
15,GGTTACACGTGGGGTG,0.02 kcal/mol
16,ACGGGCACGTGGAGGT,-0.03 kcal/mol
17,TGAATCACGTGCTTGG,0.04 kcal/mol
18,GAGAGCACGTGTGAGG,0.09 kcal/mol
19,GGTAACACGTGATAGG,0.32 kcal/mol
20,AGACGCACGTGGGGGA,-0.23 kcal/mol
21,AGGAACACGTGGTAGA,-0.03 kcal/mol
22,AGTCGCACGTGAGGAT,0.18 kcal/mol
23,GTTTGCACGTGCAGGT,0.15 kcal/mol
24,TTCTTCACGTGGGATT,0.17 kcal/mol
25,TTGGACACGTGTCATA,0.07 kcal/mol

row,Sequence,relative binding free energy
1,AATTTCACGTGGATTA,0.2 kcal/mol
2,GGGAACACGTGCGGTG,-0.07 kcal/mol
3,AGATTCACGTGGTTGT,0.31 kcal/mol
4,CTTGACACGTGGTTTA,-0.16 kcal/mol
5,ATCAACACGTGGGTTG,-0.23 kcal/mol
6,TTGAGCACGTGCGTTT,-0.06 kcal/mol
7,AGGTACACGTGACTTT,0.29 kcal/mol
8,GGGGACACGTGGTGGA,0.02 kcal/mol
9,GTTGGCACGTGGCATT,-0.13 kcal/mol
10,TGCGGCACGTGGCGGG,-0.14 kcal/mol
11,AAAATCACGTGTAGTT,0.19 kcal/mol
12,TTGCTCACGTGTAAGG,0.34 kcal/mol
13,TTGAGCACGTGTAGGT,-0.05 kcal/mol
14,TGCGCCACGTGGGGGT,-0.23 kcal/mol
15,AATGGCACGTGTTATT,0.01 kcal/mol
16,TAGGACACGTGATGGT,0.06 kcal/mol
17,TTGCGCACGTGGTTAG,-0.23 kcal/mol
18,AGTTTCACGTGCGAGT,0.45 kcal/mol
19,CTTAACACGTGGCGGT,0.01 kcal/mol
20,CCCGTCACGTGGTGGG,-0.12 kcal/mol
21,GCTTTCACGTGAGATT,0.37 kcal/mol
22,TATCTCACGTGGTGGT,0.17 kcal/mol
23,TTGTGCACGTGGTCAC,-0.06 kcal/mol
24,GGAGTCACGTGATTAT,0.19 kcal/mol
25,TGCATCACGTGGGGAG,-0.05 kcal/mol

row,Sequence,relative binding free energy
1,TTATTCACGTGGGTTA,0.21 kcal/mol
2,TCTTACACGTGTTTTT,0.06 kcal/mol
3,TGTAGCACGTGCCTTG,-0.14 kcal/mol
4,TCATGCACGTGGGTAA,-0.21 kcal/mol
5,TTGCGCACGTGGTCGG,-0.25 kcal/mol
6,TATATCACGTGGGAGT,0.04 kcal/mol
7,GGGCTCACGTGAGTTG,0.38 kcal/mol
8,GATTTCACGTGTCATT,0.31 kcal/mol
9,GTGTTCACGTGTTGGT,0.31 kcal/mol
10,GTGTTCACGTGTTATG,0.25 kcal/mol
11,ATTGGCACGTGGTGTT,-0.24 kcal/mol
12,TAGCTCACGTGGCTGT,0.27 kcal/mol
13,ATAAGCACGTGAAGTT,0.14 kcal/mol
14,GAATGCACGTGAGTCG,0.4 kcal/mol
15,GGGGGCACGTGCTATG,-0.13 kcal/mol
16,ATTACCACGTGTAGTT,0.05 kcal/mol
17,ATAGGCACGTGTGTTG,-0.05 kcal/mol
18,ATGCGCACGTGTTAAA,0.08 kcal/mol
19,TTGGTCACGTGTGGTA,0.17 kcal/mol
20,TGTGACACGTGGCGTG,-0.14 kcal/mol
21,TGTTTCACGTGTCGGC,0.29 kcal/mol
22,TGATACACGTGTTGGT,0.02 kcal/mol
23,AGAAGCACGTGGCTTT,-0.01 kcal/mol
24,GGGAGCACGTGTAGGA,-0.15 kcal/mol
25,GTAGGCACGTGAGAAT,0.13 kcal/mol

row,Sequence,relative binding free energy
1,TGTGACACGTGGCATT,-0.08 kcal/mol
2,TGTTACACGTGGAGAA,0.12 kcal/mol
3,CCGCACACGTGGGGGG,-0.05 kcal/mol
4,TGTTGCACGTGAGGAG,0.24 kcal/mol
5,ACTTTCACGTGTATTT,0.13 kcal/mol
6,TTTCGCACGTGGGTGA,-0.1 kcal/mol
7,GAAATCACGTGGCGGT,0.18 kcal/mol
8,AATTCCACGTGGGTGT,-0.03 kcal/mol
9,GTCTGCACGTGCGGTT,0.12 kcal/mol
10,AAAAGCACGTGTGGTT,-0.03 kcal/mol
11,ACGGTCACGTGTTTGA,0.17 kcal/mol
12,ATCTTCACGTGATGGG,0.23 kcal/mol
13,AGTTACACGTGGACAG,0.27 kcal/mol
14,AGAAACACGTGGGTTT,0.04 kcal/mol
15,TGTGGCACGTGCTTAG,-0.24 kcal/mol
16,GTAGTCACGTGGCTCT,0.15 kcal/mol
17,TGGGGCACGTGCAATG,-0.11 kcal/mol
18,TGGAGCACGTGTTGGC,0.04 kcal/mol
19,AAATTCACGTGTTGTA,0.36 kcal/mol
20,GGGTCCACGTGGTCAT,0.11 kcal/mol
21,CTGGGCACGTGTATTT,0.1 kcal/mol
22,ATGTGCACGTGAATCG,0.14 kcal/mol
23,GGCAGCACGTGAGGTA,0.17 kcal/mol
24,CTTTACACGTGAGGTT,0.29 kcal/mol
25,CTGCACACGTGTGTGG,-0.05 kcal/mol

row,Sequence,relative binding free energy
1,TGCTACACGTGGGTGC,0.05 kcal/mol
2,CAAGTCACGTGTGTGG,0.15 kcal/mol
3,TCCTGCACGTGAGGGT,0.13 kcal/mol
4,GGTCACACGTGGTCGG,0.06 kcal/mol
5,TGGTACACGTGTACTG,0.1 kcal/mol
6,AAAGTCACGTGGTAAT,-0.03 kcal/mol
7,CTCAGCACGTGTGTGG,-0.18 kcal/mol
8,CTGGTCACGTGGGATT,0.08 kcal/mol
9,TTAGTCACGTGTGTCG,0.21 kcal/mol
10,TGAAGCACGTGCTAGT,-0.14 kcal/mol
11,AATTGCACGTGACGGT,-0.05 kcal/mol
12,AATTGCACGTGATTTT,0.09 kcal/mol
13,CTAATCACGTGAGTTG,0.27 kcal/mol
14,GTTGTCACGTGTTTGA,0.06 kcal/mol
15,AATGCCACGTGTGGGT,-0.05 kcal/mol
16,AGGTACACGTGGTGTG,-0.13 kcal/mol
17,ATAGGCACGTGGTTCT,-0.32 kcal/mol
18,GTGCACACGTGTTTTT,0.3 kcal/mol
19,GCAAGCACGTGGTAGT,-0.12 kcal/mol
20,CATGGCACGTGAGATT,0.25 kcal/mol
21,GGTGTCACGTGTTGGC,0.12 kcal/mol
22,TCCGTCACGTGTAGTG,0.13 kcal/mol
23,GGCGACACGTGGGGCA,-0.08 kcal/mol
24,AAAGGCACGTGTGCGG,-0.27 kcal/mol
25,CGTTCCACGTGTTGGG,0.22 kcal/mol

row,Sequence,relative binding free energy
1,AAAGGCACGTGGTTGG,-0.15 kcal/mol
2,GTCAGCACGTGGTGAT,-0.13 kcal/mol
3,TATTTCACGTGACTGT,0.33 kcal/mol
4,TGAAGCACGTGGGTGT,-0.23 kcal/mol
5,TCGGCCACGTGAAGGG,0.09 kcal/mol
6,GTATTCACGTGAATCG,0.4 kcal/mol
7,GCGTCCACGTGTGGGG,0.15 kcal/mol
8,GTAGTCACGTGGTTTT,0.12 kcal/mol
9,TTAGACACGTGTATGT,-0.04 kcal/mol
10,GGTCTCACGTGGGTCA,0.01 kcal/mol
11,TGAGTCACGTGAAGGG,0.22 kcal/mol
12,TATTGCACGTGTTTAA,-0.18 kcal/mol
13,AGATTCACGTGTTGTC,0.31 kcal/mol
14,TACATCACGTGATTAT,0.35 kcal/mol
15,ATGTGCACGTGTGTTC,0.03 kcal/mol
16,TTCGGCACGTGGGATG,-0.12 kcal/mol
17,GTGCCCACGTGTTGGT,0.08 kcal/mol
18,TAATGCACGTGTATAT,-0.01 kcal/mol
19,TGGGACACGTGTACGT,-0.01 kcal/mol
20,GTGAGCACGTGCTATT,-0.08 kcal/mol
21,TGCGTCACGTGGGTTG,0.1 kcal/mol

# From the BET-seq Pho4 binding data (Le et al. 2018)
